# Assay results taken from paper PMC11927755.
# Tested on: P10636
# Assay: SDS-PAGE and Western blot of heat-, SDS- and reducing condition-stable multimers; 2 μM tau in aggregation buffer (10 mM sodium Hepes, 0.1 mM EDTA, 200 mM NaCl, 5 mM DTT, pH 7.6) with 75 μM arachidonic acid (aggregated) or ethanol vehicle (unaggregated), 6 h at RT; boiled in Laemmli buffer …
# Settings: other: SDS-PAGE and Western blot of heat-
substance,measurement,value
"O-GlcNAc modified hT39 (Glc hT39, 2N3R tau) (no sequence given)","percent decrease of stable multimers relative to unmodified hT39, aggregated samples","37% decrease, t = 5.505, p < 0.05 for aggregated samples"
same,"percent decrease of stable multimers relative to unmodified hT39, unaggregated samples","72% decrease, t = 4.250, p < 0.05 for unaggregated samples"
